We go through 42 compounds from ChEMBL document CHEMBL4888484, “Replenishing the malaria drug discovery pipeline: Screening and hit evaluation of the MMV Hit Generation Library 1 (HGL1) against asexual blood stage Plasmodium falciparum ,using a nano luciferase reporter read-out” (2022).

In all, about 150,000 compounds went through this assay and about 540 (0.36%) showed an effect of 50% or more. The list shows a part of the results.

This experiment concerns Plasmodium falciparum. Put plainly: Primary screen in NF54 nanoGlo assay, in single point, at 2uM, 72h; a lower Z score goes with more inhibition. Type of experiment: functional, Erythrocyte. As to conditions: timepoint 72 hour.
As a reminder, the % Inhibition is the relative decrease from the control value, in per cent. In the case of `CC(NC(=O)N1CCCC(CO)C1)c1cnn(Cc2ccccc2)c1` (centres undefined), the “% Inhibition” value was -16% and the Z score was 1.46.
On the same counts, the results for `O=C(Cn1nc2c(Oc3ccccc3)nc3ccccc3n2c1=O)N1CCN(c2ccc(F)cc2)CC1` are -6% and 0.79.
On the same counts, the results for `CC(C)=CCN1C(=O)C2(CCN(C(=O)c3cccnc3)CC2)Nc2ccccc21` are -14% and 1.94.
On the same counts, the results for `Cc1noc(-c2cccnc2N2CCN(C(c3ccccc3)c3ccccc3)CC2)n1` are 14% and -1.61.
Turning to `Cc1cc(-c2cc(S(=O)(=O)N3CCN(C(C)C)CC3)c(C)s2)[nH]n1`, the “% Inhibition” value is -8% and the Z score amounted to 1.79.
On the same counts, the results for `O=C(c1cccnn1)N1CC[C@H]2[C@H](CCC(=O)N2CCc2cccs2)C1` are 5% and -0.58.
On the same counts, the results for `O=C(c1coc(-c2ccccc2)n1)N1CCCc2cccc(OC(F)F)c21` are 1% and -0.12.
On the same counts, the results for `O=C1NCCC[C@@H]1Nc1nc(-c2ccncc2)nc2c1CCC2` are 7% and -0.89.
For `Cc1cccnc1CN1CCC(Oc2cncc(Cl)c2)CC1`, the “% Inhibition” value was 1% and the Z score is -0.12.
Taken in the same sequence, the figures for `COc1ccc(CN(C(=O)c2ccccc2C(F)(F)F)C2CCCC2)cc1OC(C)C` were -9% and 1.18.
Taken in the same sequence, the figures for `COc1ccc(S(=O)(=O)CCNC(=O)Cn2cc(OC)c(=O)cc2C)cc1` were -16% and 2.66.
Turning to `Cn1c(-c2nc([C@H]3CCS(=O)(=O)C3)no2)cc2ccccc2c1=O`, the “% Inhibition” value was 6% and the Z score was -0.77.
Turning to `CC1CCN(Cc2nnnn2CC(=O)NCc2cnc(-c3ccccc3)s2)CC1`, the “% Inhibition” value is -16% and the Z score came out at 1.49.
Taken in the same sequence, the figures for `Cc1nn(CC(=O)NCCCN(C)Cc2ccccc2)c(=O)c2c(C)n(-c3ccccc3)nc12` were -3% and 0.46.
In the case of `CC(=O)N1CCN(Cc2ccccc2NC(=O)c2oc(CC3CC3)nc2C)CC1`, the “% Inhibition” value is given as -13% and the Z score is recorded as 1.66.
Taken in the same sequence, the figures for `OC[C@]1(O)CCCN(Cc2ccc(-c3cccc(Cl)c3Cl)o2)CC1` were 1% and -0.25.
On the same counts, the results for `O=C(Nc1ccccc1)Nc1ccc2nc3n(c(=O)c2c1)CCCC3` are -5% and 0.59.
Taken in the same sequence, the figures for `Cc1ncc(CN(C)C(=O)c2ccc3c(c2)OCO3)s1` were 6% and -1.1.
`Cc1cc2c(cc1C)[C@H](C(=O)NC1(C(=O)O)CCC1)CO2`: the “% Inhibition” value stood at 2% and the Z score is on record as -0.35.
On the same counts, the results for `CCc1ccc(C(NC(=O)C2CCCN2C(C)=O)C(C)(C)C)o1` (centres undefined) are -10% and 1.39.
On the same counts, the results for `Nc1nc(CCCNC2CCN(c3nc4ccccc4o3)CC2)cs1` are 12% and -2.48.
Taken in the same sequence, the figures for `O=C(NC[C@@H](c1ccco1)N1CCCC1)Nc1ccc(Cl)cc1` were 25% and -2.96.
Turning to `Cc1ccc(CC(=O)N[C@@H](CC2CC2)C(=O)O)s1`, the “% Inhibition” value was 1% and the Z score was -0.15.
Taken in the same sequence, the figures for `Cn1c(=O)c(-c2nc(-c3cccc(F)c3)no2)c(O)c2ccc(F)cc21` were -12% and 1.52.
For the compound `Cc1ccc(S(=O)(=O)N[C@@H](CC(=O)NCCN2CCOCC2)c2ccco2)cc1`, the “% Inhibition” value worked out at 17% and the Z score is -1.99.
Taken in the same sequence, the figures for `CCN(CC)c1ccc(C(=O)OCC(=O)N2CCCCCC2)cc1` were -5% and 0.8.
Taken in the same sequence, the figures for `Cn1cccc1C(=O)N1CC[C@H](Nc2cccnc2)C1` were 2% and -0.28.
Taken in the same sequence, the figures for `Cc1ccc(CNC(=O)Nc2c(C)noc2C)cc1` were -1% and 0.15.
Regarding `Cc1cc(=O)[nH]c(CCNC2CCN(c3nc4ccccc4o3)CC2)n1`, the “% Inhibition” value is reported as -3% and the Z score was determined as 0.57.
On the same counts, the results for `COCCc1nc(Cn2cnc(-c3ccccc3)c2[C@H](C)c2ccccc2)no1` are -7% and 0.92.
On the same counts, the results for `Cc1nc(N[C@@H](C)c2ncccc2C)cc(C2CCNCC2)n1` are -5% and 0.88.
On the same counts, the results for `CCOC[C@H]1CCN(c2cc(N(C)c3ccccc3)ncn2)C1` are -10% and 1.97.
Turning to `Cc1ccc(OCc2cc(C(=O)N3CCN(C)C[C@@H]3C(C)C)no2)cc1C`, the “% Inhibition” value was -10% and the Z score amounted to 1.16.
Consider `CCn1ccc(NC(=O)N(C)Cc2ncc(Br)cn2)n1`, for which the “% Inhibition” value is 1% and the Z score was -0.12.
On the same counts, the results for `CCCN1CCN(Cc2nc3nc(C)cc(N4CCOCC4)n3n2)CC1` are -14% and 1.82.
On the same counts, the results for `Cc1cc(C(=O)NC[C@H](C)c2ccc(S(C)(=O)=O)cc2)cc(C)n1` are -9% and 1.78.
Taken in the same sequence, the figures for `O=C(NC1CCCN(c2ccc(Cl)cc2Cl)C1)N[C@H]1[C@@H]2COC[C@@H]21` (some centres undefined) were -3% and 0.48.
Turning to `Cc1nc2ccc(-n3nc(C(C)C)nc3[C@H]3CCC(=O)N3)cc2s1`, the “% Inhibition” value was -10% and the Z score was 2.06.
On the same counts, the results for `Cc1cc(=O)[nH]c(-n2ncc(C(=O)NCCc3ccc(F)cc3)c2C)n1` are 2% and -0.28.
As for `CN(Cc1ccccc1)[C@@H]1COC2(C1)CN(C(=O)c1ccc(F)cc1F)C2`, the “% Inhibition” value was -12% and the Z score amounted to 2.1.
Taken in the same sequence, the figures for `CCc1nn(C)c(Cl)c1CN1CC[C@H]1c1ccc(F)cc1` were -8% and 1.39.
Taken in the same sequence, the figures for `Cc1ncccc1CNC(=O)N[C@H]1C[C@@H]1CC(C)(C)C` were -11% and 2.02.
